Among the data in PubChem BioAssay AID463173 (ICCB-Longwood Screening Facility, Harvard Medical School, 2010) are survival values, retold here.

Screen size: about 52,000 compounds; about 1,700 (3.3%) were called active. No stated cut-off is given here; in the data, active means survival mostly below about 52% (no sharp cut-off); inactive means mostly above about 56%. The list shows a part of the results.

The test system of the test is Wild type. Briefly: growth inhibition of S. aureus wild type versus tarO mutant, primary screen, teichoic acid synthesis inhibitors, RN4220, OD600 (AID 463173). To be noted: S. aureus RN4220 wild type/DeltatarO growth, OD600, 18 h, hits give low values, screened at 18.75 µg/mL (by protocol).
As to `CCc1cccc(C)c1Nc1c(-c2ccc(SC)cc2)nc2sccn12`, the survival is inactive: 83%.

For `COc1ccc(CC(=O)N2N=C(c3ccncc3)CC2(O)C(F)(F)F)cc1` (stereo unspecified), the survival is inactive: 105%.

In the case of `Cc1cccc(-c2nc(CCNC(=O)COc3ccccc3)cs2)c1`, the survival was inactive: 73%.

Consider `Cc1ccc(CN(Cc2ccco2)C(=O)c2ccc(Cl)cc2Cl)cc1`, for which the survival is inactive: 84%.

As for `Cc1cccc(NC(=O)CSc2ncc(-c3ccc(Br)cc3)[nH]2)c1`, the survival was inactive: 147%.

Regarding `O=C(CSc1ccc(-c2cccs2)nn1)Nc1ccccc1`, the survival is inactive: 86%.

As for `COc1cccc(CNc2nc3ccccc3c3nc(-c4cccc(C)c4)nn23)c1`, the survival was inactive: 31%.

In the case of `CC(=O)c1cccc(NC(=O)Nc2c(C)n(C)n(-c3ccccc3)c2=O)c1`, the survival was inactive: 121%.

For the compound `COc1ccc(-c2cc(-c3ccccc3)nc(SCC(=O)Nc3ccccc3C)c2C#N)cc1`, the survival was inactive: 70%.

Regarding `CCN1CCc2c(sc(NC(=O)c3ccc(S(=O)(=O)N(CCOC)CCOC)cc3)c2C(N)=O)C1`, the survival is inactive: 68%.

In the case of `Cc1ccc(-c2nc3cc(NC(=O)c4cc5ccccc5o4)ccc3o2)cc1Cl`, the survival was inactive: 137%.

Turning to `O=C(c1ccc(Cl)cc1)N1CCCC1`, the survival was inactive: 102%.

On to `CCOCCCn1c(SCC(=O)Nc2cc(C)ccc2C)nc2c(oc3ccccc32)c1=O`, for which the survival was inactive: 83%.

As to `COC(=O)c1ccc(NC(=O)CN2CCCN(Cc3ccc(Cl)cc3)S2(=O)=O)cc1`, the survival is inactive: 110%.

Regarding `Cc1ccc(Sc2c(C(=O)NCc3cccc(F)c3)[nH]c3ccccc23)cc1`, the survival was inactive: 89%.

For the compound `CC(C)Oc1ccc(CN2CCc3nc(Nc4ccc5c(c4)OCCO5)ncc3C2)cc1`, the survival is inactive: 85%.

As to `CCn1c(CSc2ncccn2)nnc1SCC(=O)N1CCCCC1`, the survival was inactive: 99%.

Regarding `CC(NC(=O)CN1C(=O)COc2ccc(S(=O)(=O)N3CCCCCC3)cc21)c1ccccc1` (stereo unspecified), the survival is inactive: 75%.

Turning to `CN(C)CCNC(=O)c1ccc(-n2c(-c3ccccc3)cc3c2CCCCC3)cc1`, the survival was inactive: 17%.

For the compound `COc1ccc(N2CCN(C(=O)CNC3CC3)CC2)cc1`, the survival was inactive: 98%.

Consider `O=C(COc1ccc(Cl)cc1)N(Cc1ccco1)Cc1ccco1`, for which the survival is inactive: 74%.

In the case of `COc1ccc(OC)c(NC(=O)CSC2=Nc3ccccc3C3=NC(CCC(=O)NCc4ccccc4)C(=O)N23)c1` (stereo unspecified), the survival was active: -3%.

Take `Cc1nc2ccn(Cc3cccs3)c(=O)c2cc1C(=O)NCc1ccc(Br)cc1`: the survival was inactive: 82%.

On to `COc1ccccc1CNC(=O)CCC(=O)N1CC(C)Sc2ccccc21` (stereo unspecified), for which the survival is inactive: 105%.

With `Cc1c(C(=O)N(C)C)sc2c1c(=O)n(-c1ccc(Cl)c(Cl)c1)c(=O)n2CC(=O)C(C)(C)C`, the survival was inactive: 74%.

As to `COc1ccc(C(=O)Nc2cccc(-c3cn4ccsc4n3)c2)c(OC)c1`, the survival is inactive: 81%.

`O=S(=O)(Nc1cccc(C(F)(F)F)c1)c1ccc(NS(=O)(=O)c2ccc3c(c2)OCCO3)cc1`: the survival was inactive: 30%.

Consider `Cc1cccc(N2CCN(C(=O)CN3C(=O)COc4ccc(S(=O)(=O)N5CCC(C)CC5)cc43)CC2)c1C`, for which the survival was inactive: 73%.

`Cc1csc2nc(COC(=O)c3cccc(NC(=O)c4cccc(Cl)c4)c3)cc(=O)n12`: the survival is active: -1%.

For the compound `CCc1nn(CC(=O)N2CCC(C)CC2)c(=O)c2cc3occc3n12`, the survival is inactive: 127%.

For the compound `CCCN(c1ccc(C(C)C)cc1)S(=O)(=O)c1ccc2c(c1)n(C)c(=O)c(=O)n2C`, the survival was inactive: 90%.

For `Cc1ccc(NC(=O)CSc2nc3ccccc3n2CC(=O)N2CCC(C)CC2)cc1C`, the survival is active: -1%.

For `CCC(=O)Oc1cc(C(C)(C)C)cc2cc(-c3nc(-c4ccc(OC)cc4OC)no3)c(=O)oc12`, the survival is inactive: 106%.

As for `CCOc1ccc(N(CC(=O)Nc2cc(OC)cc(OC)c2)S(=O)(=O)c2c(C)[nH]c(=O)[nH]c2=O)cc1`, the survival was inactive: 79%.

For the compound `Cc1ccc(-n2nc3c(N4CCC(C(=O)NC5CCC(C)CC5)CC4)nnc(C)c3c2C)cc1` (stereo unspecified), the survival was inactive: 74%.

With `Cc1ccc2sc(N(Cc3cccnc3)C(=O)Cc3ccccc3)nc2c1C`, the survival was inactive: 63%.

Turning to `CC1=C(C(N)=O)C(c2cccc(O)c2)n2ncnc2N1` (stereo unspecified), the survival is inactive: 87%.

Regarding `COc1ccc(Cl)cc1NC(=O)Cn1c(=O)oc2cc(S(=O)(=O)N3CCCCCC3)ccc21`, the survival is inactive: 88%.

As for `O=C(c1cccs1)c1cn(CCOc2ccc(Cl)cc2)c2ccccc12`, the survival was inactive: 80%.

Take `Cc1ccc(C(=O)c2cn(Cc3ccccc3F)c3cc4c(cc3c2=O)OCCO4)cc1`: the survival is inactive: 83%.

Regarding `CN(C)CCNC(=O)c1ccc(Cn2c(SCc3ccc(F)cc3)nc3cccnc32)cc1`, the survival is inactive: 129%.

For the compound `Cc1cc2c(n1-c1ccc(C(=O)NCCc3ccc(Cl)cc3)cc1)CCC(C)C2` (stereo unspecified), the survival was inactive: 70%.

As for `Cc1nc2nc(C(F)(F)F)[nH]c2cc1Br`, the survival was inactive: 16%.

As for `COc1ccc(-c2cc(C(F)(F)F)n3nc(C(=O)OC(C)C)cc3n2)cc1`, the survival is inactive: 70%.

For the compound `CCc1ccc2oc(C(=O)Nc3nc(-c4ccc(F)cc4)ns3)c(C)c2c1`, the survival is inactive: 77%.

With `CCOC(=O)c1cccc(NC(=O)CC2C(=O)N(c3ccccc3)C(=O)N2Cc2ccco2)c1` (stereo unspecified), the survival is inactive: 45%.

`Cc1c(C2=CCN(S(=O)(=O)c3ccc(Cl)cc3)CC2)c2ccccc2n1CC(=O)N1CCCC1`: the survival was inactive: 75%.

For `O=C(CC1(O)C(=O)N(CCc2ccccc2)c2ccc(Br)cc21)c1ccccc1` (stereo unspecified), the survival was inactive: 15%.

With `O=C(OCn1nnc2ccccc2c1=O)C1CCCCC1`, the survival was inactive: 118%.

As for `CCOc1ccccc1CNC(=O)C1CCN(c2nnc(C)c3c(C)n(-c4ccc(C)cc4)nc23)CC1`, the survival is inactive: 86%.

Consider `O=C(CN1C(=O)S/C(=C\c2ccco2)C1=O)CN1C(=O)S/C(=C\c2ccco2)C1=O`, for which the survival was inactive: 113%.

With `CC(=O)Nc1ccc(Nc2nc3ccc(Cl)cc3n3cnnc23)cc1`, the survival was inactive: 81%.

Consider `CNC(=O)c1ccc(-c2nc(CN3CCc4ccccc43)c(C)o2)cc1`, for which the survival was inactive: 74%.

Regarding `Cc1cccc(OCC(=O)Nc2ccc(OCc3cc(=O)n4cc(C)ccc4n3)cc2)c1`, the survival was inactive: 88%.

With `Cc1c(Cl)cccc1NC(=O)C(C)n1nc(C)c2c(C)n(-c3ccccc3)nc2c1=O` (stereo unspecified), the survival was inactive: 81%.

As to `CCC1CCCCN1C(=O)CSc1n[nH]c(-c2ccccc2)n1` (stereo unspecified), the survival was inactive: 100%.
